Experimental data: PubChem BioAssay (NCI)
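Method: 48-hour compound exposure of cells in 96-well plates, five concentrations, linear interpolation of endpoints. GI50 marks 50% less growth. Definition used: TGI = concentration required for complete inhibition of growth.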

Tested on: NCI-H322M lung
Test: inhibition of tumour cell growth, NCI panel, 48 h

Row | Compound | TGI [µM] | GI50 [µM]
1 | O=C(OCc1ccccc1)N1CCNCCNCC1 | > 100 | 
2 | COc1cccc2c1C(=O)C(=O)c1c-2oc(=O)c2cc(C)cc(OC)c12 | > 75 | 
3 | CC(C)C1C(=O)N2CCCC2C2(O)OC(NC(=O)C3C=C4c5cccc6[nH]cc(c56)CC4N(C)C3)(C(C)C)C(=O)N12 (configuration not stated) | > 100 | 
4 | CO/C(=N/N1CC1C(F)(F)F)c1ccncc1 (configuration not stated) | > 100 | 
5 | O=C(O)c1ccc(Nc2ccnc3cc(Cl)ccc23)cc1O | > 100 | 
6 | NC(=O)/N=C(\N)NC(=O)c1ccccc1 | > 100 | 
7 | COC(=O)[C@@H]1O[C@]12C(CO[Si](C)(C)C(C)(C)C)OC(n1ccc(=O)[nH]c1=O)C2O[Si](C)(C)C(C)(C)C (some centres not stated) | > 100 | 
8 | CC(C)=CCNc1ncnc2c1ncn2CCC(=O)OC(C)(C)C | > 100 | 
9 | C[C@H]1CCC/C=C/[C@@H]2C[C@H](O)C[C@H]2[C@H](O)[C@H](S(=O)c2ccc(O)cc2)CC(=O)O1 (some centres not stated) | 2.24 | 0.0393
10 | COc1ccc(-c2oc3c(CC(=O)O)cccc3c(=O)c2OC)cc1 | > 100 | 
11 | Cc1nnc(Nc2ccc(Cl)cc2)o1 | > 10 | 
12 | CCCCCCCCN(CCCCCCCC)C(=N)c1ccnc2ccccc12 | 2.85 | 1.31
13 | CCC[CH2][Sn]1([CH2]CCC)[O]C(c2ccccn2)S(=O)(=O)[O]1 (configuration not stated) | 27.9 | 14.7
14 | O=C1c2ccccc2C(=O)c2c(OCC3CO3)ccc(OCC3CO3)c21 (configuration not stated) | 25.5 | 
15 | NC(=S)SCCC(=O)O | > 100 | 
16 | Nc1ncc(-c2cnn(C3CCNCC3)c2)cc1-c1nc2ccccc2o1 | 8.37 | 0.907
17 | O=c1oc2ccc(Cl)cc2c(=O)n1-c1ccc(Cl)cc1F | 15.6 | 0.365
18 | CCOC(=O)C1C(=O)CC(C)(O)C(C(=O)OCC)C1c1ccc(N(C)C)cc1 (configuration not stated) | > 100 | 
19 | CCCCCCCC1c2cc3[nH]c(cc4nc(cc5[nH]c(cc(n2)[C@@]1(C)CC(=O)N(C)C)c(C)c5CCC(=O)O)C(CCC(=O)O)=C4C)cc3C (some centres not stated) | > 100 | 
20 | O=C1C=C(Nc2ccccc2)c2ncccc2C1=O | 2.98 | 1.6
21 | CCCSc1cc(Cl)c(C)cc1S(=O)(=O)n1cc[nH]c1=O | > 100 | 
22 | CN(C)CCOc1cc2c(c3ccccc13)-c1ccccc1C2=O | 6.09 | 
23 | N#CN=Nc1cc(Cl)c(N=NC#N)cc1Cl | > 100 | 
24 | COC(=O)/C=C\c1ccc2c(c1)CC1(C2)Cc2ccc(/C=C/C(=O)OC)cc2C1 (configuration not stated) | > 31.6 | 

Row | Compound | TGI [µM] | GI50 [µM]
25 | C[C@]12CC[C@@H]3c4ccc(OC(=O)c5ccccc5)cc4CC[C@H]3[C@@H]1CCC2OC(=O)c1cccc2c(=O)c3ccccc3[nH]c12 (some centres not stated) | 47.3 | 
26 | CC1=CC2=C(OCO1)C(=O)c1ccccc1C2=O | 28.1 | 
27 | COc1ccc(OC)c(/C=C/c2nnc(Nc3ccc(Cl)cc3)o2)c1 | > 100 | 30.5
28 | O=C(O)CN1CCNCCN(CC(=O)O)CC1 | > 100 | 
29 | CCCCCCCC/C=C\CCCCCCCCNc1ccn(C2OC(COP(=O)(O)OC3CC(n4cc(F)c(=O)[nH]c4=O)OC3CO)C(O)C2O)c(=O)n1 (configuration not stated) | > 100 | 
30 | Cc1cc(Cl)ccc1Nc1sc(C(=O)c2cc3cc(Cl)ccc3o2)c(N)c1C#N | > 100 | 
31 | O=C(NO)c1cccc(OCc2ccc(Br)cc2)c1 | > 87.6 | 
32 | O=[N+]([O-])C(/C(Cl)=C(/Cl)N1CCCCC1)=C1\NCCO1 | > 100 | 
33 | CCCCCCCCCCCCCCCCOP(=O)(O)OP(=O)(O)OCC1OC(n2ccc(N)nc2=O)CC1O (configuration not stated) | > 100 | 
34 | CC(N)Cc1cccc(C(F)(F)F)c1 (configuration not stated) | > 100 | 
35 | Cc1[nH]c2c(C)ccc(C)c2c1CC(=O)O | > 100 | 
36 | C=C(C)C1CC=C(C(=O)O)CC1 (configuration not stated) | 4580 | 
37 | CCCCCCNC(=O)c1cc(NCc2cc(OC)ccc2OC)ccc1O | > 100 | 
38 | C=C1C(=O)O[C@@H]2[C@H]1CC[C@H](C)[C@]1(O)CCC(=O)[C@@]21C | > 10 | 
39 | Cc1nc(NC(=S)NC(=O)c2ccc(Cl)c(Cl)c2)sc1C(=O)/C=C/c1ccccc1[N+](=O)[O-] | > 100 | 
40 | COc1cc(C(=O)C/C(CCC(=O)Nc2ccccc2[N+](=O)[O-])=N\NC(=O)C(N)=O)ccc1O | > 100 | 
41 | CCCCOC(=O)CN1C(=O)c2ccccc2C1=O | > 100 | 
42 | O=S(=O)(/C=C/C=C/S(=O)(=O)c1ccccc1)c1ccccc1 | 28.7 | 
43 | CC1CCCOc2ccc(cc2)C=Nc2ccc(cc2)CCc2ccc(cc2)N=Cc2ccc(cc2)OCCC1 (configuration not stated) | > 100 | 
44 | CC1(C)CC23C(=O)N(c4ccccc4)C(=Nc4ccccc4)NC2=CC(C#N)=C(C#N)C3O1 (configuration not stated) | > 100 | 
45 | COc1cccc(-c2nn(-c3ccccc3)cc2-c2ccnc(NCCNS(=O)(=O)c3ccc(C(F)(F)F)cc3)c2)c1 | > 100 | 4.67
46 | CCOC(=O)C12CCCC1(O)N(NC(=O)c1cccc(Cl)c1)C(C)=C2C(=O)OC (configuration not stated) | > 100 | 
47 | CCCCCCCCCCCCCCCCC1=CC(=O)C=C(OC)C1=O | > 100 | 
48 | COc1cc2[nH]c(C(=O)c3cc(OC)c(OC)c(OC)c3)c(N)c2cc1C#CCO | > 100 | 0.705
